PubChem BioAssay AID894 (National Center for Advancing Translational Sciences (NCATS), 2007)
Hit rate of the full screen: of about 150,000 compounds, about 6,500 (4.3%) were called active. Inconclusive means that the source gave no clear call. Such entries were picked first, then a sample of the others. The call rests on the fitted dose curve; in most records, active means well fitted inhibition curve with a large enough effect (not every such curve was filed as active); inconclusive means small, poorly fitted or top-dose-only effect, or another doubt; inactive means no such curve, though single readings can be large or run the other way. Potencies of inconclusive entries are left out as doubtful fits.

Each compound was assayed against 15-hydroxyprostaglandin dehydrogenase [NAD(+)] (Homo sapiens) (UniProt P15428) (assay: qHTS Assay for Inhibitors of HPGD (15-Hydroxyprostaglandin Dehydrogenase)). Details: purified HPGD, NADH fluorescence kinetic, PGE2 substrate; activity change, negative = inhibition: active compounds read low.
Sequence of UniProt P15428 (P15428 whole entry, looked up): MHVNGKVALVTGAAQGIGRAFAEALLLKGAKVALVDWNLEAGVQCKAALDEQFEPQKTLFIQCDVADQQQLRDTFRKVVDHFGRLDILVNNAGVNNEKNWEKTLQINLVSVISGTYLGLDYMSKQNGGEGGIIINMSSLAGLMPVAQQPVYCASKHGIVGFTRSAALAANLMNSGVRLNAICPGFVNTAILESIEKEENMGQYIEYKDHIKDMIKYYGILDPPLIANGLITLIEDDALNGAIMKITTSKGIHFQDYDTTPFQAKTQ
Method in brief: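 NADH formation kinetics: reaction with 30 uM PGE2 and 1 mM NAD+ (final), 20 nM enzyme, Tris-HCl pH 8 with Tween 20, after 15 min compound preincubation at room temperature. Fluorescence change, last versus first of five reads.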
On the % scale 0 is the no-effect control and ±100 the full control effect; potency means the concentration at half of the fitted maximal effect; tags describe the fitted curve by direction and shape.

SMILES	Potency	activity change, negative = inhibition
O=C(c1ccc(CN2CCc3ccccc3C2)cc1)N1CCc2ccccc2C1	active: 3.16 µM	–
Cc1cccn2c(=O)c3cc(C(=O)NC4CCS(=O)(=O)C4)sc3nc12 (stereo unspecified)	inconclusive [inhibitor, partial curve]	–
Cc1cccc(N2CCCn3c2nc2c3c(=O)n(CC(=O)OCc3ccccc3)c(=O)n2C)c1	inconclusive [inhibitor, single point]	–
Cc1nc2ccc3nc(NC(=O)c4ccc(S(=O)(=O)N5CCOCC5)cc4)sc3c2s1	inconclusive [inhibitor, full curve, poor fit]	–
CC(C)Cn1c(N)c(C(=O)COC(=O)c2cc(-c3ccco3)nc3ccccc23)c(=O)n(C)c1=O	inconclusive [inhibitor, partial curve]	–
COc1ccc(-c2cn(-c3ccc(C)cc3)c(=O)n2CC(=O)Nc2cccc(F)c2)cc1	–	inactive: -12.4%
O=C1c2ccccc2NC(c2cccc(F)c2)N1Cc1ccco1 (stereo unspecified)	inconclusive [inhibitor, partial curve]	–
CN1CCN(c2nc(-c3ccco3)cc(C(F)(F)F)n2)CC1	–	inactive: -15.5%
CC(=O)N1CCN(c2ccc(NC(=O)COc3ccc(Cl)cc3Cl)cc2)CC1	inconclusive [inhibitor, partial curve]	–
CCSc1nc(-c2ccccc2)c(C#N)c(=O)[nH]1	active: 28.2 µM	–
CSc1ccc(Cl)c(C(=O)NCc2ccco2)c1	active: 15.8 µM	–
Cn1c(-c2ccc3c(c2)OCO3)cnc1NCc1ccc(Cl)cc1	inconclusive [inhibitor, partial curve]	–
O=C(Nc1nc(-c2cccs2)cs1)c1ccc(S(=O)(=O)N2CCCCC2)cc1	inconclusive [inhibitor, partial curve]	–
Cc1cc(/C=C2/NC(=O)N(Cc3ccccc3F)C2=O)c(C)n1-c1ccccn1	inconclusive [inhibitor, single point]	–
COc1ccc(-c2nn(CC(=O)N(C)C)c(=O)c3ccccc23)cc1	inconclusive [inhibitor, single point]	–
Cc1cc(C)c(OCCNC(=O)c2ccccc2Sc2ccccc2C#N)c(C)c1	–	inactive: -5.79%
Cc1cc(C)c2[nH]c(=O)c(CN(Cc3ccco3)C(=S)NCC3CCCO3)cc2c1 (stereo unspecified)	inconclusive [inhibitor, partial curve]	–
Cc1cc(C)cc(NC(=O)CN2CCc3ccccc3C2)c1	–	inactive: 3.15%
CCOC(=O)c1ccc(NC(=O)c2cn(-c3ccccc3)nc2-c2ccncc2)cc1	inconclusive [inhibitor, partial curve]	–
CCC1CC2CC(NC(C)=O)C1C2 (stereo unspecified)	–	inactive: -5.16%
O=C(Nc1cccc(Oc2ccc3c(c2)C(=O)NC3=O)c1)c1ccco1	active: 20 µM	–
COC(=O)CCC(=O)COc1ccccc1C#N	active: 14.1 µM	–
CN(C)S(=O)(=O)c1cccc(NC(=O)COC(=O)c2ccc(Br)o2)c1	–	inactive: 0.0907%
CC1=NN(c2ccc(C)cc2C)C(=O)C1C(c1cccc(O)c1)C1C(=O)N(c2ccc(C)cc2C)N=C1C (stereo unspecified)	inconclusive [inhibitor, single point]	–

SMILES	Potency	activity change, negative = inhibition
Cc1nn(-c2ccccc2)c(C)c1/C=N/NC(=O)c1cc(C23CC4CC(CC(C4)C2)C3)[nH]n1	inconclusive [inhibitor, single point]	–
COc1cccc(C2C3=C(CC(C)(C)CC3=O)Nc3cc4c(cc32)OCO4)c1 (stereo unspecified)	inconclusive [inhibitor, partial curve]	–
O=C(NC1CCCCC1)N(Cc1cc2cc3c(cc2[nH]c1=O)OCCO3)CC1CCCO1 (stereo unspecified)	inconclusive [inhibitor, partial curve]	–
O=C1CC(Sc2ncn[nH]2)C(=O)N1c1ccccc1 (stereo unspecified)	active: 12.6 µM	–
CCc1cc2c(nc1CC)CCN(CC/C(C)=N/OC[C@H]1O[C@H](c3ccccc3)C=C[C@@H]1Oc1ccc(OC)cc1)C2	–	inactive: -18.5%
O=c1nc(-c2ccccc2)cc(C(F)(F)F)[nH]1	inconclusive [inhibitor, partial curve]	–
Cc1ccc(C)c(SCC(=O)NCc2ccco2)c1	active: 7.94 µM	–
CCCC(=O)Nc1ccc(Nc2ccccc2)cc1	active: 15.8 µM	–
O=C(N/N=C/C=C/c1ccccc1)c1cccc(Br)c1	–	inactive: -9.18%
COc1ccc(C(=O)Nc2cc(OC)ccc2OC)cc1	–	inactive: -11.9%
COc1ccc(NC(=O)N2CC3(CCN(C(=O)c4cc(C(F)(F)F)cc(C(F)(F)F)c4)CC3)C2)cc1	–	inactive: -15.3%
CCC/C=C(\CCC)C(NC(=O)C(C)(C)C)c1ccc(C(=O)OC)cc1 (stereo unspecified)	–	inactive: -18.6%
O=c1sc(/C=N/Nc2ccccc2)c(Cl)n1Cc1ccccc1	inconclusive [inhibitor, partial curve, poor fit]	–
C/C(CC(=O)Nc1ccccn1)=N\NC(=O)C(=O)Nc1ccccc1C	inconclusive [inhibitor, single point]	–
O=C(CSc1n[nH]c(-c2ccncc2)n1)NC1CCS(=O)(=O)C1 (stereo unspecified)	inconclusive [inhibitor, partial curve]	–
COc1ccc(-c2cc(C(=O)Nc3ccc(Cl)cc3Cl)c3ccccc3n2)cc1OC	inconclusive [inhibitor, single point]	–
S=c1[nH]nc(SCc2ccccc2Cl)c2[nH]cnc12	active: 1.26 µM	–
CCN(CC)S(=O)(=O)c1ccc(N2CCOCC2)c(NC(=O)CC23CC4CC(CC(Br)(C4)C2)C3)c1	–	inactive: -11.9%
O=C(O)CCCCCNS(=O)(=O)c1cccc2nsnc12	–	inactive: -3.1%
CCC(=O)Nc1nonc1-c1nc2ccccc2n1CC(C)C	inconclusive [inhibitor, partial curve]	–
COc1ccccc1C(=O)Nc1nc(-c2ccc(S(=O)(=O)N3CCOCC3)cc2)cs1	inconclusive [inhibitor, partial curve]	–
Cc1ccc(S(=O)(=O)NNC(=S)Nc2ccccc2)cc1	active: 11.2 µM	–
CCOC(=O)N1CCN(C(=O)c2cn(C)c(=O)c3c2c2ccccc2n3C)CC1	inconclusive [inhibitor, partial curve]	–
NC(=O)c1cc2ccc(O)cc2oc1=NCc1ccccc1	inconclusive [inhibitor, partial curve]	–

SMILES	Potency	activity change, negative = inhibition
COc1ccc(C(=O)NCc2cn3ccccc3n2)cc1	inconclusive [inhibitor, single point]	–
Cc1cc(NC(=O)CCN2C(=O)c3ccccc3C2=O)no1	–	inactive: -9.61%
COc1cc(C(C)=O)ccc1COc1ccc(C(=O)OC(C)C(=O)NC(N)=O)cc1OC (stereo unspecified)	–	inactive: -1.33%
Cc1nn(Cc2cccc(C(=O)Nc3ccn(Cc4ccccc4F)n3)c2)c(C)c1[N+](=O)[O-]	–	inactive: -1.67%
Cc1c(C(=O)Nc2ccc(F)cc2)c2ccccn2c1CCc1ccncc1	inconclusive [inhibitor, partial curve]	–
Nc1c(C(O)(C(F)(F)F)C(F)(F)F)ccc2ccccc12	inconclusive [inhibitor, partial curve]	–
c1ccc(-c2[nH]ncc2-c2nc3ccccc3[nH]2)cc1	inconclusive [inhibitor, single point]	–
CC(=O)N1CCN(C(=O)CSc2nc3c(cnn3-c3ccccc3)c(=O)[nH]2)CC1	inconclusive [inhibitor, partial curve]	–
Cc1ccc(NC(=O)c2ccc(NCCN)c([N+](=O)[O-])c2)cc1Cl	–	inactive: -14.2%
CCCCNS(=O)(=O)c1cccc(S(=O)(=O)N2CCCC2)c1	–	inactive: -4.33%
CCN1CC=C2C(C#N)=C(N)C(C#N)(C#N)[C@H](c3cccc(OC)c3OC)[C@H]2C1	inconclusive [inhibitor, partial curve]	–
CCN(CC)C1=CC(=O)OC12CCCCC2	active: 35.5 µM	–
CCOc1ccc(-n2c(=S)sc3c(=O)[nH]c(SCC(=O)N4CCC(C)CC4)nc32)cc1	–	inactive: -11.2%
CC(C)(C)C(=O)c1sc(Nc2ccccc2)nc1N	inconclusive [inhibitor, partial curve]	–
COc1ccc(NC(=O)CSc2nc3ccccc3c(=O)n2CCCN2CCCCC2)c(OC)c1	–	inactive: -7.62%
Cc1ccc(-n2c(=O)[nH]c3c(C(N)=O)nc(-c4ccc(C)o4)nc32)cc1	inconclusive [inhibitor, partial curve]	–
O=C(N/N=C/c1ccc(F)c(F)c1)c1cc2c(s1)-c1ccccc1CC2	inconclusive [inhibitor, partial curve]	–
Cc1cc(=O)oc2c1ccc1oc(/C(=N/O)c3ccccc3)c(C)c12	active: 12.6 µM	–
COc1ccc2[nH]cc(CC(N)C(=O)O)c2c1 (stereo unspecified)	–	inactive: -3.13%
COc1ccc2cnnc(SCC(=O)Nc3ccc(C(=O)O)cc3)c2c1OC	inconclusive [inhibitor, partial curve]	–
COc1ccccc1OCCC(=O)OCC(=O)Nc1cccc(Br)c1	–	inactive: -5.37%
O=C(OCc1cc2ccccc2[nH]c1=O)c1ccccn1	inconclusive [inhibitor, partial curve]	–
CCOc1ccc(/C=N/NC(=O)c2ccc(CSc3nc4ccccc4[nH]3)cc2)cc1	inconclusive [inhibitor, partial curve]	–
